{
  "source": "the supplement of paper PMC10126150",
  "note": "Values marked as one replicate rest on one cluster of the flow cell; about a third of the high ones do not repeat.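 Note: ATP exposure 15 min at 22 °C before imaging.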",
  "data": [
    {"tested_on": "ATP", "assay": "switch fluorescence ratio, 500 uM ATP over buffer (Cy3 cluster intensity, sum of 5 cycles each) (fold (ratio)); higher = stronger signal-on switching upon ATP binding; sequences stand for … in TCGTCGGCAGCGTCAGATGTGTATAAGAGACAGTTTTTTTTTTTTTTTTTTTTTTTTT…TC", "conditions": "aptamer strand: ATP DNA aptamer (quencher-CACCTGGGGGAGTATTGCGGAGGAAGG + anchor), 100 nM annealed; ATP concentration: 500 uM; one replicate", "how_it_was_run": "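The fluorescence ratio divides summed target-cycle Cy3 intensity by summed buffer-cycle Cy3 intensity for each cluster and is averaged per switch-domain sequence. Cy3-labelled switching-strand clusters on a modified Illumina MiSeq flow-cell were annealed to 100 nM quencher-labelled ATP aptamer, then imaged in selection buffer and again after 15 min with 500 uM ATP at 22 °C. Five such cycles were run, with NaOH stripping and re-annealing between them, and clusters outside 100-1000 RFU were excluded.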", "values": [
      {"sequence": "GATTTTATG", "switch fluorescence ratio": 0.962},
      {"sequence": "TCGGTACTGG", "switch fluorescence ratio": 0.953},
      {"sequence": "AGGCAAGTTA", "switch fluorescence ratio": 1.01},
      {"sequence": "GGGTGGCTG", "switch fluorescence ratio": 0.944},
      {"sequence": "TTAGATGTAG", "switch fluorescence ratio": 1.01},
      {"sequence": "GATTCCGTCA", "switch fluorescence ratio": 1.08},
      {"sequence": "CACACAGAGC", "switch fluorescence ratio": 1.06},
      {"sequence": "GGCACCAACC", "switch fluorescence ratio": 1.08},
      {"sequence": "GCCCACTACT", "switch fluorescence ratio": 1.07},
      {"sequence": "CAGGTATACC", "switch fluorescence ratio": 0.991},
      {"sequence": "GTGGATGCAA", "switch fluorescence ratio": 1.02},
      {"sequence": "TTCGATGGCA", "switch fluorescence ratio": 1.09},
      {"sequence": "TCCGTCGGGA", "switch fluorescence ratio": 1.83},
      {"sequence": "CTGTGCGGTC", "switch fluorescence ratio": 1.06},
      {"sequence": "TGAATCATCA", "switch fluorescence ratio": 0.985},
      {"sequence": "TGTCGGAGGC", "switch fluorescence ratio": 1.04},
      {"sequence": "CGGCAGAGGA", "switch fluorescence ratio": 1},
      {"sequence": "CAGTCTAGC", "switch fluorescence ratio": 0.977},
      {"sequence": "TGGCTTACT", "switch fluorescence ratio": 1.12},
      {"sequence": "ACGTCTCCGA", "switch fluorescence ratio": 1.09},
      {"sequence": "AAGTTCACGA", "switch fluorescence ratio": 1.05},
      {"sequence": "CCTGGAATTA", "switch fluorescence ratio": 2.42},
      {"sequence": "CCAGAATTCC", "switch fluorescence ratio": 1.05},
      {"sequence": "TAAAACACGG", "switch fluorescence ratio": 1.01},
      {"sequence": "CGGCAGTTTT", "switch fluorescence ratio": 1.01},
      {"sequence": "CATGCAGCCC", "switch fluorescence ratio": 1.82},
      {"sequence": "TGCCTGAAGA", "switch fluorescence ratio": 1.04},
      {"sequence": "CGTGATGCTC", "switch fluorescence ratio": 1.97},
      {"sequence": "GATATACGTA", "switch fluorescence ratio": 0.959},
      {"sequence": "GCGACGTGAA", "switch fluorescence ratio": 1.33},
      {"sequence": "CTCTATCCCG", "switch fluorescence ratio": 0.996},
      {"sequence": "TCAGTCAGTA", "switch fluorescence ratio": 0.978},
      {"sequence": "TTAGCTATGC", "switch fluorescence ratio": 1.1},
      {"sequence": "AGTAAACTTG", "switch fluorescence ratio": 1.1},
      {"sequence": "AACTGGGGCT", "switch fluorescence ratio": 1.03},
      {"sequence": "TATTGGAGCA", "switch fluorescence ratio": 0.975},
      {"sequence": "TATACGTGAA", "switch fluorescence ratio": 1.14},
      {"sequence": "GAGGAGACGA", "switch fluorescence ratio": 1.05},
      {"sequence": "GAATAAGTG", "switch fluorescence ratio": 1.03},
      {"sequence": "ATTGAGTCAA", "switch fluorescence ratio": 0.981},
      {"sequence": "AGTCAGAAGG", "switch fluorescence ratio": 0.982},
      {"sequence": "CGGAGTACTT", "switch fluorescence ratio": 1.16},
      {"sequence": "CTATACGTA", "switch fluorescence ratio": 1.14},
      {"sequence": "AACTTCGAAA", "switch fluorescence ratio": 1.21},
      {"sequence": "CGATCCTAGT", "switch fluorescence ratio": 1.03},
      {"sequence": "AAGAAGAGAT", "switch fluorescence ratio": 1},
      {"sequence": "GTGCGTAGTA", "switch fluorescence ratio": 1},
      {"sequence": "TTCAAGTCGA", "switch fluorescence ratio": 1.01},
      {"sequence": "GCGCTAGGC", "switch fluorescence ratio": 1.14},
      {"sequence": "AACTCCAAGA", "switch fluorescence ratio": 1.55},
      {"sequence": "TTCAATAATG", "switch fluorescence ratio": 1.02},
      {"sequence": "ATGGAGGTGC", "switch fluorescence ratio": 1.13},
      {"sequence": "GGATTGCATG", "switch fluorescence ratio": 1.01},
      {"sequence": "TTTCACCTTA", "switch fluorescence ratio": 1.07},
      {"sequence": "GGGAATTTAC", "switch fluorescence ratio": 1.04},
      {"sequence": "GGGTCTCGGC", "switch fluorescence ratio": 1.01},
      {"sequence": "TTTCCGTTGT", "switch fluorescence ratio": 1.01},
      {"sequence": "TTAGGACCGT", "switch fluorescence ratio": 1.02},
      {"sequence": "TACATTGGGG", "switch fluorescence ratio": 1.01},
      {"sequence": "CCGCAGTGTT", "switch fluorescence ratio": 3.58},
      {"sequence": "TTGTTCACCA", "switch fluorescence ratio": 1.01},
      {"sequence": "TGATCGCCTA", "switch fluorescence ratio": 0.997},
      {"sequence": "TCTCCGTCTG", "switch fluorescence ratio": 1.98},
      {"sequence": "AATGTTGGG", "switch fluorescence ratio": 0.944},
      {"sequence": "TATGTATATT", "switch fluorescence ratio": 0.991},
      {"sequence": "GAAGTCATGT", "switch fluorescence ratio": 0.992},
      {"sequence": "ATACATTGTA", "switch fluorescence ratio": 0.992},
      {"sequence": "GGATTGGTGC", "switch fluorescence ratio": 0.996},
      {"sequence": "TATTTTGACC", "switch fluorescence ratio": 0.992},
      {"sequence": "TACGAGTACG", "switch fluorescence ratio": 1.1},
      {"sequence": "AATACTTTGT", "switch fluorescence ratio": 1},
      {"sequence": "GATTGTTAGC", "switch fluorescence ratio": 1.01},
      {"sequence": "AGCAAGCCGG", "switch fluorescence ratio": 0.966},
      {"sequence": "TATATATTCG", "switch fluorescence ratio": 1.01},
      {"sequence": "AGGAAGCGAG", "switch fluorescence ratio": 0.973},
      {"sequence": "CGTAGTATGC", "switch fluorescence ratio": 1.4},
      {"sequence": "ATCGCTTAG", "switch fluorescence ratio": 1.13},
      {"sequence": "GGGGCGTGCC", "switch fluorescence ratio": 0.983},
      {"sequence": "TCATAAACCT", "switch fluorescence ratio": 2.4},
      {"sequence": "AGTATCGTCA", "switch fluorescence ratio": 0.968},
      {"sequence": "CTAGTAACGT", "switch fluorescence ratio": 1.01},
      {"sequence": "ATTTCATCCT", "switch fluorescence ratio": 0.956},
      {"sequence": "CGTATGCGTA", "switch fluorescence ratio": 0.966},
      {"sequence": "CAGAGTTGTG", "switch fluorescence ratio": 0.98},
      {"sequence": "GGGACTCTGC", "switch fluorescence ratio": 1.02},
      {"sequence": "GCACTAATTG", "switch fluorescence ratio": 1.07},
      {"sequence": "AAGCTGCAAT", "switch fluorescence ratio": 1.72},
      {"sequence": "GTAGCGGCTT", "switch fluorescence ratio": 0.99},
      {"sequence": "TACATTCGTG", "switch fluorescence ratio": 1.02},
      {"sequence": "CATTTATCCC", "switch fluorescence ratio": 0.968},
      {"sequence": "AGGCCCATAA", "switch fluorescence ratio": 0.998},
      {"sequence": "CCGGTATTAA", "switch fluorescence ratio": 1.14},
      {"sequence": "CAGAAGTGGA", "switch fluorescence ratio": 0.948},
      {"sequence": "AGACATGTGA", "switch fluorescence ratio": 0.94},
      {"sequence": "GCCTCGAGGA", "switch fluorescence ratio": 1.03},
      {"sequence": "GCATATTCGG", "switch fluorescence ratio": 0.989},
      {"sequence": "GATCAGCACC", "switch fluorescence ratio": 1.12},
      {"sequence": "CGTTTAATTG", "switch fluorescence ratio": 0.998},
      {"sequence": "CGTGCCGGT", "switch fluorescence ratio": 1.04},
      {"sequence": "GGTAGGGCAG", "switch fluorescence ratio": 1.03},
      {"sequence": "AAAGTGCTGG", "switch fluorescence ratio": 0.993},
      {"sequence": "AAGGCTGGAG", "switch fluorescence ratio": 0.977},
      {"sequence": "CATCCCATGA", "switch fluorescence ratio": 1.07},
      {"sequence": "CAAGGATTAT", "switch fluorescence ratio": 1},
      {"sequence": "TAGATAACTT", "switch fluorescence ratio": 1.02},
      {"sequence": "TTATTTAACA", "switch fluorescence ratio": 1.01},
      {"sequence": "TTGCCAGGGG", "switch fluorescence ratio": 0.997},
      {"sequence": "GCTGACTATG", "switch fluorescence ratio": 1},
      {"sequence": "GGTCAAGAGA", "switch fluorescence ratio": 1},
      {"sequence": "TAATGTATCC", "switch fluorescence ratio": 0.955},
      {"sequence": "TTCGAGCTTT", "switch fluorescence ratio": 1.03},
      {"sequence": "GCTATGGAAC", "switch fluorescence ratio": 0.994},
      {"sequence": "GAATTTGCTT", "switch fluorescence ratio": 0.968},
      {"sequence": "CTTACCTCAT", "switch fluorescence ratio": 1.07},
      {"sequence": "AAGAGTTTAG", "switch fluorescence ratio": 0.996},
      {"sequence": "ACGTGCGGTG", "switch fluorescence ratio": 1.03},
      {"sequence": "CCACAGGGGG", "switch fluorescence ratio": 1.79},
      {"sequence": "ACTCTACGGC", "switch fluorescence ratio": 1.19},
      {"sequence": "CTGGTTGAGG", "switch fluorescence ratio": 1.02},
      {"sequence": "CCGGTATCAC", "switch fluorescence ratio": 1.79},
      {"sequence": "TTCCGGTCTA", "switch fluorescence ratio": 1.05},
      {"sequence": "CAATATAAGG", "switch fluorescence ratio": 0.995},
      {"sequence": "CTGTGGGTGT", "switch fluorescence ratio": 1.01},
      {"sequence": "CGGCGAAGGT", "switch fluorescence ratio": 1.01},
      {"sequence": "ATGGGAATTG", "switch fluorescence ratio": 0.947},
      {"sequence": "GCCTTGGGTC", "switch fluorescence ratio": 0.955},
      {"sequence": "TCATGAGTGA", "switch fluorescence ratio": 0.993},
      {"sequence": "CGGAACCCTT", "switch fluorescence ratio": 1},
      {"sequence": "TGGATCGATT", "switch fluorescence ratio": 0.977},
      {"sequence": "GACAACCGGC", "switch fluorescence ratio": 1.11},
      {"sequence": "TTTAGGACAC", "switch fluorescence ratio": 1.01},
      {"sequence": "TCGATTGCGC", "switch fluorescence ratio": 0.995},
      {"sequence": "AGTGAAGATT", "switch fluorescence ratio": 0.994},
      {"sequence": "TAGGTAATGC", "switch fluorescence ratio": 1.39},
      {"sequence": "TACAGCTTCG", "switch fluorescence ratio": 0.983},
      {"sequence": "CATAAATCCC", "switch fluorescence ratio": 0.997},
      {"sequence": "CTAGAAAGTG", "switch fluorescence ratio": 1.06},
      {"sequence": "GTCACTGGCG", "switch fluorescence ratio": 1.04},
      {"sequence": "TCCTGGTGCT", "switch fluorescence ratio": 1},
      {"sequence": "GTCAGCGGGG", "switch fluorescence ratio": 0.951},
      {"sequence": "TGGGGGCGC", "switch fluorescence ratio": 0.988},
      {"sequence": "TGGGGTGGGC", "switch fluorescence ratio": 1.05},
      {"sequence": "GACATCCACG", "switch fluorescence ratio": 1.27},
      {"sequence": "TTAGTTTGGT", "switch fluorescence ratio": 1.02},
      {"sequence": "GGGTGAGTAT", "switch fluorescence ratio": 1.03},
      {"sequence": "GGAAACGGAG", "switch fluorescence ratio": 0.995},
      {"sequence": "GCATGTCGAG", "switch fluorescence ratio": 1.03},
      {"sequence": "CTGTTGTCGC", "switch fluorescence ratio": 1.02},
      {"sequence": "CATTACGTTC", "switch fluorescence ratio": 1},
      {"sequence": "CACCTCAATA", "switch fluorescence ratio": 2.55},
      {"sequence": "ATATTGTGTT", "switch fluorescence ratio": 0.985},
      {"sequence": "GACTTGGACG", "switch fluorescence ratio": 0.989},
      {"sequence": "AGGGTATTGA", "switch fluorescence ratio": 1.01}
    ]}
  ]
}
